In publication PMC3197607:
Results are given in words; binding and its absence hold for the method and conditions named. In cells and extracts the contact can be indirect. Some results given as binding are weak or reduced against the parent protein; the word gives no strength.

Chains of the proteins cited; added tags and fusions are not shown.
UniProt Q13547: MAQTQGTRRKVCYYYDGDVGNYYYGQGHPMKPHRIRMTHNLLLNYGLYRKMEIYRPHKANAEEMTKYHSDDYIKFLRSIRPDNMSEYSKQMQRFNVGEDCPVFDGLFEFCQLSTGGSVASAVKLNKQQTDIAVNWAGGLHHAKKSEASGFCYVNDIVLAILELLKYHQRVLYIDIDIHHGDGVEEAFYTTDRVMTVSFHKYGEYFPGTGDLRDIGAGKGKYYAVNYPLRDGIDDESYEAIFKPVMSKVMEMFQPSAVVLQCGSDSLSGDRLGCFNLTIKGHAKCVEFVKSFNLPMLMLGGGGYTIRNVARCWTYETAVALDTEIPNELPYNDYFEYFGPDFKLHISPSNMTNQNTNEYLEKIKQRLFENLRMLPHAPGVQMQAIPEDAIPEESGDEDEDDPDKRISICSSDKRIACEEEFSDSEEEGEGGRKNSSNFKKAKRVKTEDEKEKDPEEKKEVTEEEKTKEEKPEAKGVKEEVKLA

How the values were obtained:
[1] = target: human p53 (human (endogenous in KB, HEK293, HCT116)) (UniProt P04637); assay: co-IP; endogenous proteins in NP-40 buffer lysates (20 mM Tris-HCl pH 7.4, 100 mM NaCl, 0.5 mM EDTA, 0.5% NP-40) of human cell lines (KB, HEK293, HCT116, H1299); 2 mg total protein with 1 µg antibody (anti-p53, anti-HDAC1 or anti-Sin3B), immunoblot of the partner; KB cells also after 1.0 µg/ml Adriamycin
[2] = target: HDAC1 (human (endogenous in KB, H1299)) (UniProt Q13547); assay: as above

B1: human Sin3B (protein, UniProt O75182 1-1162)
chain: MAHAGGGSGGSGAGGPAGRGLSGARWGRSGSAGHEKLPVHVEDALTYLDQVKIRFGSDPATYNGFLEIMKEFKSQSIDTPGVIRRVSQLFHEHPDLIVGFNAFLPLGYRIDIPKNGKLNIQSPLTSQENSHNHGDGAEDFKQQVPYKEDKPQVPLESDSVEFNNAISYVNKIKTRFLDHPEIYRSFLEILHTYQKEQLNTRGRPFRGMSEEEVFTEVANLFRGQEDLLSEFGQFLPEAKRSLFTGNGPCEMHSVQKNEHDKTPEHSRKRSRPSLLRPVSAPAKKKMKLRGTKDLSIAAVGKYGTLQEFSFFDKVRRVLKSQEVYENFLRCIALFNQELVSGSELLQLVSPFLGKFPELFAQFKSFLGVKELSFAPPMSDRSGDGISREIDYASCKRIGSSYRALPKTYQQPKCSGRTAICKELDHWTLLQGSWTDDYCMSKFKNTCWIPGYSAGVLNDTWVSFPSWSEDSTFVSSKKTPYEEQLHRCEDERFELDVVLETNLATIRVLESVQKKLSRMAPEDQEKFRLDDSLGGTSEVIQRRAIYRIYGDKAPEIIESLKKNPVTAVPVVLKRLKAKEEEWREAQQGFNKIWREQYEKAYLKSLDHQAVNFKQNDTKALRSKSLLNEIESVYDEHQEQHSEGRSAPSSEPHLIFVYEDRQILEDAAALISYYVKRQPAIQKEDQGTIHQLLHQFVPSLFFSQQLDLGASEESADEDRDSPQGQTTDPSERKKPAPGPHSSPPEEKGAFGDAPATEQPPLPPPAPHKPLDDVYSLFFANNNWYFFLRLHQTLCSRLLKIYRQAQKQLLEYRTEKEREKLLCEGRREKGSDPAMELRLKQPSEVELEEYYPAFLDMVRSLLEGSIDPTQYEDTLREMFTIHAYVGFTMDKLVQNIARQLHHLVSDDVCLKVVELYLNEKKRGAAGGNLSSRCVRAARETSYQWKAERCMADENCFKVMFLQRKGQVIMTIELLDTEEAQTEDPVEVQHLARYVEQYVGTEGASSSPTEGFLLKPVFLQRNLKKFRRRWQSEQARALRGEARSSWKRLVGVESACDVDCRFKLSTHKMVFIVNSEDYMYRRGTLCRAKQVQPLVLLRHHQHFEEWHSRWLEDNVTVEAASLVQDWLMGEEDEDMVPCKTLCETVHVHGLPVTRYRVQYSRRPASP
For B1, the binding [1] was “binds” and the binding [2] was “binds”.
